Reference: PubChem BioAssay AID1671188 (National Center for Advancing Translational Sciences (NCATS), 2021)
The campaign covered roughly 100,000 compounds. About 250 (0.25%) were called active. The inconclusive results got no clear call from the source; some entries with a clear call stand among them for comparison. Calls follow the shape of the dose curve; as a rule, active = well fitted inhibition curve with a large enough effect; inconclusive = small, poorly fitted or top-dose-only effect; inactive = flat fitted curve, though single readings scatter. Potencies beside an inconclusive call are fits to weak or partial responses and may not hold up.

molecular target: Alanine aminotransferase 2 (Homo sapiens) (UniProt Q8TD30); experiment: Primary qHTS assay for inhibitors of Glutamate pyruvate transaminase 2 (GPT2); details: Recombinant GPT2, coupled pyruvate oxidase/HRP Amplex Red fluorescence; activity change, negative = inhibition: at 57.7 µM (top of the series) unless noted; series mostly up to 57.7 µM; also: nearly all actives have a fitted effect of over 60% in size
Sequence of UniProt Q8TD30 (Q8TD30 whole entry, looked up): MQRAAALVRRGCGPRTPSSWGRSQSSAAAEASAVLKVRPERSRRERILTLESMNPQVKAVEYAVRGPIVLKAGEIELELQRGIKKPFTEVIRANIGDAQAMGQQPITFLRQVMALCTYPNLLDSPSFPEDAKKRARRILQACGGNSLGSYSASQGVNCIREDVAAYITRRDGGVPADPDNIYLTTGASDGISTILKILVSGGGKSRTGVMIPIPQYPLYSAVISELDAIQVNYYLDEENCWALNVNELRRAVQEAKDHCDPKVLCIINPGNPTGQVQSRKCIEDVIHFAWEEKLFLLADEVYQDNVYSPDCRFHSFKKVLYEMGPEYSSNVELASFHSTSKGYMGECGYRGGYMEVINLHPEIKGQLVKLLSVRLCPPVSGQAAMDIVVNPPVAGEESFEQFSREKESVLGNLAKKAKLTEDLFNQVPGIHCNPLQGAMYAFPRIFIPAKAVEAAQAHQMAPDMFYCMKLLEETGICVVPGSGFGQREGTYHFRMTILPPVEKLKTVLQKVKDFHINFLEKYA
Outline: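 Fluorescence of coupled pyruvate oxidase/HRP/Amplex Red system (50uM Amplex, 30 min, dark) reports pyruvate formed by GPT2. Enzyme reaction: 10ng/uL GPT2, 2mM L-alanine, 250uM a-KG, 30 min room temperature, pH 7.5; 50uM AOA control.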
% is scaled to controls: 0 for no effect and ±100 for the full control effect; potency is read from the fitted curve at half-maximal effect; tags tell the direction and shape of the fitted curve.

Row | Structure (SMILES) | activity change, negative = inhibition | outcome | Potency
1 | COc1cccc(NC(=O)N2CCC(Oc3ncccc3C(=O)N3CCOCC3)C2)c1 (stereo unspecified) | inactive: -0.0665% | – | –
2 | COc1ccccc1N1CCCc2ncc(C(=O)N3CCCC[C@@H]3Cc3ccccc3)cc21 | – | inactive | –
3 | C=CCNC(=O)c1ccn2nccc2c1 | – | – | inconclusive: 63.1 µM [inhibitor, single point]
4 | O=C(c1ccc(Cl)cc1)N1CCN(c2ccnc3ccnn23)CC1 | inactive: 2.09% | – | –
5 | CC(C)N1C(=O)C2(CCCC2)C1C(=O)NCCN1CCC(Cc2ccccc2)CC1 (stereo unspecified) | – | – | inconclusive: 3.98 µM [inhibitor, full curve, poor fit]
6 | CC1=C[C@@H](CNS(=O)(=O)c2ccccc2)[C@H](C(C)C)C[C@H]1Cc1nnc(-c2ccncc2)o1 | inactive: -0.411% | – | –
7 | CC(C)N(Cc1cnn(C)c1)Cc1cn(Cc2ccccc2)nc1-c1ccc2c(c1)OCO2 | – | inactive | –
8 | CNc1nc2c(s1)C(c1cccc(F)c1)CC(=O)N2 (stereo unspecified) | – | – | inconclusive: 1.58 µM [inhibitor, full curve, poor fit]
9 | Cn1c(CCC(=O)N2CCOCC2)nc2cc(S(=O)(=O)N3CCCC3)ccc21 | – | – | inconclusive: 39.8 µM [inhibitor, single point]
10 | CCc1noc(-c2ccn3c(CNC(=O)Cc4c[nH]c5ccccc45)nnc3c2)n1 | – | – | inconclusive: 6.31 µM [inhibitor, single point]
11 | CCC(=O)c1c(O)cc(O)cc1O | – | – | active: 5.01 µM
12 | CN1CCC(OC2CCN(C(=O)c3cnn(C)c3)CC2)CC1 | inactive: -11.3% | – | –
13 | Cc1ccc(NC(=O)COc2cccc(-c3nnc4n3CCCC4)c2)cc1 | – | inactive | –
14 | CCc1nc(C)c(C(=O)Nc2nn(C)c3cccc(N4CCOC4=O)c23)o1 | inactive: -6.28% | – | –
15 | CC1Cc2ccccc2N1NC(=O)c1ccc(Cl)c(S(N)(=O)=O)c1 (stereo unspecified) | – | – | inconclusive: 43.2 µM [inhibitor, single point]
16 | CCNC(=O)[C@H]1O[C@H](n2cnc3c(NCC(c4ccccc4)c4ccccc4)nc(C(=O)NCCNC(=O)NC4CCN(c5ccccn5)CC4)nc32)[C@H](O)[C@@H]1O | inactive: 1.34% | – | –
17 | CC(Cn1cccn1)C(=O)N1CCc2onc(-c3ccc(F)c(F)c3)c2C1 (stereo unspecified) | – | – | inconclusive: 17.8 µM [inhibitor, partial curve, poor fit]
18 | COc1cc(NC(=O)N[C@H]2CO[C@H]3[C@@H]2OC[C@H]3OC(=O)Nc2cccc(C(C)=O)c2)cc(OC)c1 | – | – | inconclusive: 8.91 µM [inhibitor, single point]
19 | CC(NC(=O)Cc1cccc(F)c1)C(=O)N1CCN(c2ccccn2)CC1 (stereo unspecified) | – | – | inconclusive: 11.2 µM [inhibitor, partial curve]
20 | CNC(=O)[C@@H]1C[C@H](Oc2ccccc2)CN1C(=O)CCc1ccccc1 | – | – | inconclusive: 25.1 µM [inhibitor, partial curve, poor fit]
21 | O=C(c1ccccc1F)N1CCC2(CC1)CC(c1cccnc1)=NO2 | – | inactive | –
22 | O=C(Nc1ccc(F)cc1)c1ccc2c(c1)OCCN(c1ccccc1)C2 | – | – | inconclusive: 11.2 µM [inhibitor, partial curve, poor fit]

Row | Structure (SMILES) | activity change, negative = inhibition | outcome | Potency
23 | CC1=C[C@@H](CNC(=O)CC2(CC(=O)O)CCCC2)[C@H](C(C)C)C[C@H]1Cc1nc2c(C)cccc2[nH]1 | – | – | inconclusive: 5.62 µM [inhibitor, full curve, poor fit]
24 | C=CC(C)(O)CC/C=C(\C)C(=O)OC1CC2(C(=O)O)CCC3(C)C(=CCC4C5(C)CCC(OC6OC(COC7OCC(O)C(O)C7O)C(O)C(OC7OCC(O)C(O)C7O)C6OC6OC(CO)C(O)C(O)C6OC6OCC(O)C(O)C6O)C(C)(C)C5CCC43C)C2CC1(C)C (stereo unspecified) | – | – | inconclusive: 6.31 µM [inhibitor, single point]
25 | COc1cccc(CNC(=O)[C@@H]2C[C@@H](O)CN2C2CCN(C(=O)c3ccccc3OC)CC2)c1 | inactive: 4.84% | – | –
26 | COc1cccc(C(=O)N2CCC(N3C[C@H](O)C[C@H]3C(=O)NCc3cc(F)ccc3F)CC2)c1 | – | inactive | –
27 | COc1ccc(C(=O)NCCn2ccn3nc(-c4cccc(OC)c4)cc3c2=O)cc1 | inactive: 4.68% | – | –
28 | C=C1C[C@]23C[C@H]1CC[C@H]2[C@]1(C)CCC[C@@]2(CO)C(=O)O[C@H]([C@H]21)[C@@H]3O | – | – | inconclusive: 5.01 µM [inhibitor, single point]
29 | O=C1Nc2ccccc2C12CCN(Cc1cccc3ccccc13)C2 (stereo unspecified) | inactive: -2.31% | – | –
30 | CC(C)=CCn1c(-c2ccc(F)cc2)cn2cc(C(=O)N3CC[C@H](O)C3)nc2c1=O | – | – | inconclusive: 7.94 µM [inhibitor, full curve, poor fit]
31 | O=C(CCc1nnn2c1CN(C(=O)NCc1ccccc1)CC2)N1CCCC1 | – | – | inconclusive: 2.24 µM [inhibitor, partial curve, poor fit]
32 | COc1cccc(CCC(=O)Nc2cccc(-c3nnc4n3CCCC4)c2)c1 | – | – | inconclusive: 39.8 µM [inhibitor, single point]
33 | COC(=O)[C@H](NC(=O)[C@@H]1C[C@@H](NC(=O)c2ccncc2)CCN1S(=O)(=O)c1ccc(OC)cc1)C(C)C | – | – | inconclusive: 6.31 µM [inhibitor, single point]
34 | C[C@@H](N)c1ccc(C(=O)Nc2ccnc3[nH]ccc23)cc1 | – | – | inconclusive: 43.2 µM [inhibitor, single point]
35 | COCC(=O)NCCC1CCN(C(=O)Nc2ccc(C)cc2)CC1 | inactive: -0.0869% | – | –
36 | Nc1ccc(S(=O)(=O)Nc2ccnn2-c2ccccc2)cc1 | – | – | inconclusive: 35.5 µM [inhibitor, single point]
37 | Cc1noc2c(NC(C)C)cc(-c3ccsc3)nc12 | – | – | inconclusive: 1.41 µM [inhibitor, full curve, poor fit]
38 | COc1ccc(CN2CC3(CCN(C(=O)Nc4ccc(OC)cc4OC)CC3)C2=O)cc1 | – | – | inconclusive: 35.5 µM [inhibitor, single point]
39 | O=C(NCC1CCOCC1)c1cnc2n[nH]c(-c3ccccc3)c2n1 | inactive: 2.1% [at 88.5 µM] | – | –
40 | COCCNC(=O)c1ccc(OC2CCN(Cc3cccc4nonc34)CC2)c(Cl)c1 | – | inactive | –
41 | O=C1NCc2ccccc2CC12CCCN2Cc1ccccc1OC(F)(F)F (stereo unspecified) | – | – | inconclusive: 6.31 µM [inhibitor, single point]
42 | O=C(NCC1CN(c2ccc(N3CCOCC3=O)cc2)C(=O)O1)c1ccc(Cl)s1 (stereo unspecified) | – | – | inconclusive: 30.6 µM [inhibitor, single point]
43 | Cc1ccccc1CN1CCc2nc(C(=O)Nc3ccccc3)oc2CC1 | inactive: 1.03% [at 88.5 µM] | – | –
44 | C[C@@H](NC(=O)N1CCC2(CCC(=O)N(CCO)C2)CC1)c1ccccc1 | inconclusive: -33.8% [inhibitor] | – | –

Row | Structure (SMILES) | activity change, negative = inhibition | outcome | Potency
45 | CCOc1cccc(-c2nc(C3CCOC3)no2)c1 (stereo unspecified) | inactive: 3.62% | – | –
46 | O=C(NCc1cccs1)C1CCCN(c2ccnc3ccnn23)C1 (stereo unspecified) | – | – | inconclusive: 56.2 µM [inhibitor, single point]
47 | COc1ccc(-c2cc(N3CCC(NC(=O)c4ccc(F)cc4F)C3)n[nH]2)cc1 (stereo unspecified) | – | – | inconclusive: 31.6 µM [inhibitor, single point]
48 | CCN1C(=O)CN(C(=O)C2CCC2)CC12CCOCC2 | – | – | inconclusive: 1.78 µM [inhibitor, partial curve, poor fit]
49 | C=CCNC(=O)N1CCC(O)(c2csc(CN3CCN(c4ccccn4)CC3)n2)CC1 | – | – | inconclusive: 39.8 µM [inhibitor, partial curve, poor fit]
50 | COCCN(C)C[C@H]1C[C@H](CO)CN(C(=O)c2cc(C)c(C)s2)C1 | – | – | inconclusive: 2 µM [inhibitor, partial curve, poor fit]
51 | COc1cccc([S+](=O)([O-])N2CCCC3(CC(Cc4ccccc4)=NO3)C2)c1 (stereo unspecified) | – | – | inconclusive: 0.794 µM [inhibitor, full curve, poor fit]
52 | O=C(NC1CCN(c2cc(-c3ccc(Cl)cc3)[nH]n2)C1)c1ccc(Br)o1 (stereo unspecified) | – | – | inconclusive: 35.5 µM [inhibitor, single point]
53 | N#Cc1cccc(CN2CCOC[C@H]2c2ncc(-c3ccc(Cl)s3)[nH]2)c1 | inconclusive: -30.8% [inhibitor] [at 88.5 µM] | – | –
54 | COCCNC(=O)C1CCCN(c2nccc(Nc3ccc(C)cc3)n2)C1 (stereo unspecified) | – | – | inconclusive: 39.8 µM [inhibitor, single point]
55 | O=C(NCCc1ccccc1)N1CCCC(Cn2cnc3cccnc32)C1 (stereo unspecified) | – | – | inconclusive: 6.31 µM [inhibitor, single point]
56 | Nc1cc(N2CCN(Cc3ncc[nH]3)CC(C(=O)O)C2)ncn1 (stereo unspecified) | inactive: -4.88% | – | –
57 | Cc1ccccc1-c1noc(-c2ccc(NC(C)c3cnn(C)c3)nc2)n1 (stereo unspecified) | inactive: -9.01% | – | –
58 | O=C(NCc1ccccc1)c1cn2cc(-c3ccc(F)cc3)sc2n1 | – | inactive | –
59 | COCCN1CC(CO)C2(CCN(C(=O)COc3ccccc3)CC2)C1 (stereo unspecified) | inactive: 1.03% | – | –
60 | COC[C@H]1CCCN1Cc1nc(C2(O)CCN(C)CC2)cs1 | – | – | inconclusive: 1.12 µM [inhibitor, full curve, poor fit]
61 | N#Cc1cccc(C(=O)NC2CCN(c3cc(-c4ccc(F)cc4)[nH]n3)C2)c1 (stereo unspecified) | – | – | inconclusive: 39.8 µM [inhibitor, single point]
62 | CCN1C(=O)CCN(C(=O)c2cc(C)n(C)n2)CC12CCOCC2 | inactive: -3.79% | – | –
63 | CCn1ncc(CN2CCC3(CCC3OC)CC2)c1C (stereo unspecified) | – | – | inconclusive: 6.31 µM [inhibitor, single point]
64 | Cc1ccc(OCc2nc(C3CCN(C(=O)c4ccn[nH]4)C3)no2)cc1 (stereo unspecified) | inactive: 2.91% | – | –
65 | COc1ccc(-c2cc(N3CCC(NC(=O)c4ccc(F)cc4Cl)C3)n[nH]2)cc1 (stereo unspecified) | – | – | inconclusive: 39.8 µM [inhibitor, single point]
66 | O=C(C1CC1)N1CCC2(CC1)CC(=O)N(c1ccccc1)c1ccccc1O2 | – | – | inconclusive: 0.708 µM [inhibitor, full curve, poor fit]
